Measured values from PubChem BioAssay AID1347165 (National Center for Advancing Translational Sciences (NCATS), 2019).
Hit rate of the full screen: of about 220,000 compounds, about 5,700 (2.6%) were called active. This list was built around the results that the source calls inconclusive (neither active nor inactive); the mix of calls is not that of the screen. Calls come from the whole dose curve; as a rule, active = well fitted inhibition curve with a large enough effect; inconclusive = small, poorly fitted or top-dose-only effect; inactive = no such curve, though single readings can be large or run the other way. Potencies of inconclusive entries are doubtful fits and often do not repeat.

Target: Lysine-specific demethylase 5B (Homo sapiens) (UniProt Q9UGL1)
UniProt Q9UGL1, sequence (Q9UGL1 whole entry, looked up): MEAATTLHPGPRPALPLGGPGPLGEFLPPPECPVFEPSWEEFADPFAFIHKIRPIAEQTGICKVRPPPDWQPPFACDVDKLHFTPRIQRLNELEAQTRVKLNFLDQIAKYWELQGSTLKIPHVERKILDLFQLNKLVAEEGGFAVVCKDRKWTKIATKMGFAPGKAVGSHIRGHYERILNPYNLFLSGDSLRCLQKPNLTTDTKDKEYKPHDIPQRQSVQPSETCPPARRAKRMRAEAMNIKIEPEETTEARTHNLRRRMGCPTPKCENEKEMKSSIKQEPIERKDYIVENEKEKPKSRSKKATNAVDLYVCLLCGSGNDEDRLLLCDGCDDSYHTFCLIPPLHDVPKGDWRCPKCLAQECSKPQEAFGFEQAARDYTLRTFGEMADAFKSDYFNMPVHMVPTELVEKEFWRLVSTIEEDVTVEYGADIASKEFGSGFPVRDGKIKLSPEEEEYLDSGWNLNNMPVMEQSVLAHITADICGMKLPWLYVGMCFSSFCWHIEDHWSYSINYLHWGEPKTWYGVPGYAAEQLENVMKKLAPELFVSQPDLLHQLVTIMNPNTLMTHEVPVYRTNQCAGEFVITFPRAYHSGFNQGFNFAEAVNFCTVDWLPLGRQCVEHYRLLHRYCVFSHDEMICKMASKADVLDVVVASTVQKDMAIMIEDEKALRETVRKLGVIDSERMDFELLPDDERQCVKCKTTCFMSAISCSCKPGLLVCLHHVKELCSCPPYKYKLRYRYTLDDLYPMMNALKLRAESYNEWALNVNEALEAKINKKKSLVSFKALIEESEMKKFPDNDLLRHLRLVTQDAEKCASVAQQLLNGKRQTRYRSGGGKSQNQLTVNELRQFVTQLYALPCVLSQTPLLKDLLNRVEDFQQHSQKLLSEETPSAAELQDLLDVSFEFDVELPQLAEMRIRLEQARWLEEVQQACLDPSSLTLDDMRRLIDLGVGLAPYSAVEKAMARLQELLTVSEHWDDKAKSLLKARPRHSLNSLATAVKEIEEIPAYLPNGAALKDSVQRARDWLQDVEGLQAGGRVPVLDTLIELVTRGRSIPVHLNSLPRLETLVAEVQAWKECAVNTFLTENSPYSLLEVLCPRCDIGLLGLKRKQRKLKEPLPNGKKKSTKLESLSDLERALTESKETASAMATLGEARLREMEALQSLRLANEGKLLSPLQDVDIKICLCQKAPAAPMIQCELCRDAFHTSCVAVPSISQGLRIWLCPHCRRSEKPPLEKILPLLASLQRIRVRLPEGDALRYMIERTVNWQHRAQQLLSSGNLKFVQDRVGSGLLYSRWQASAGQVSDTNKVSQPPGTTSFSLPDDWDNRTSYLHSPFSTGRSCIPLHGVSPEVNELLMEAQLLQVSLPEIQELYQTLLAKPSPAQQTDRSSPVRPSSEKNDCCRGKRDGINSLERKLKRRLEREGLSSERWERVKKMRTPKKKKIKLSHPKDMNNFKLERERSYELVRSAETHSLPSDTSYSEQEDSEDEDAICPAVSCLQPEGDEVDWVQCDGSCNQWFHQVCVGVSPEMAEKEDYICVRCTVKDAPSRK
Assay: Primary screen for KDM5B Histone Demethylases FDH-coupled qHTS; note: nearly all actives have a fitted effect of over 70% in size
Conditions: FDH-coupled NADH fluorescence (FDH is formaldehyde dehydrogenase); series mostly up to 57.7 µM
How it was run: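 Measured: NADH fluorescence change, 30 min, RT. System: KDM5BΔAP 200 nM final, H3K4me3 peptide, α-KG, Fe(II), ascorbate, NAD⁺ plus FDH, pH 7.5 HEPES. Compounds: titrated, 10 min pre-incubation with enzyme.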
Potency is the fitted concentration of half-maximal effect; tags give direction and shape of the fitted curve.

Row | Structure (SMILES) | Potency
1 | COc1ccc(-c2cc(C(F)(F)F)nc(SCC(=O)Nc3ccc(O)cc3)n2)cc1OC | inconclusive: 15.8 µM [inhibitor, partial curve, poor fit]
2 | COc1cc(-c2cc(N3C(=O)Nc4ccccc4N3O)n[nH]2)cc(OC)c1OC | inconclusive: 25.1 µM [inhibitor, partial curve, poor fit]
3 | COc1cccc(C(=O)N2CCC3(CC2)NC(=O)N(c2cccc(F)c2)N3)c1OC | inactive
4 | CCCCOC(=O)c1ccc(NC(=O)CCc2ncc(-c3ccccc3)o2)cc1 | inconclusive: 1.78 µM [inhibitor, partial curve, poor fit]
5 | Cc1ccc(NC(=O)c2cccc(NC(=O)N3CCSc4ncccc43)c2)cc1F | inconclusive: 35.5 µM [inhibitor, partial curve, poor fit]
6 | CCOc1ccc(CNC(=O)c2ccc(NC(=O)N3CCSc4ncccc43)cc2)cc1 | inconclusive: 31.6 µM [inhibitor, partial curve, poor fit]
7 | Cn1nc(C(=O)NCC(=O)N2CCCCCNC(=O)CC2c2ccccc2)c2ccccc21 (stereo not drawn) | active: 28.2 µM
8 | Cc1ccc(NC(=O)c2n[nH]c(=O)c3ccccc23)cc1S(=O)(=O)N1CCCCCC1 | inactive
9 | O=Cc1c(-c2ccc(Cl)cc2Cl)[nH]c2ccccc12 | inactive
10 | CN(C)CCCN(C(=O)CCc1ccccc1)c1nc2ccc(Br)cc2s1 | inconclusive: 39.8 µM [inhibitor, partial curve, poor fit]
11 | CNC(=O)[C@@H](Cc1ccccc1)N1CCC[C@H]1C(=O)N1CCC1 | active: 28.2 µM
12 | Cc1ccc(Cn2cc(CCC(=O)NCC(C)c3ccccc3)c3ccccc32)cc1 (stereo not drawn) | inconclusive: 8.91 µM [inhibitor, partial curve, poor fit]
13 | COC(=O)c1cc(C#N)c(N2CCCC(O)(CN(C)C)CC2)nc1C (stereo not drawn) | inconclusive: 20 µM [inhibitor, partial curve, poor fit]
14 | COc1ccc(-c2cc(N3CCCC(NC(=O)c4cc(Cl)ccc4OC)C3)n[nH]2)cc1 (stereo not drawn) | inconclusive: 14.1 µM [inhibitor, partial curve, poor fit]
15 | CC(C)CC(=O)N1C[C@@H](Oc2ccccc2)C[C@H]1C(=O)N1CCOCC1 | inactive
16 | Cc1coc2c(C)c3oc(=O)c(CCC(=O)N4CCCCC4)c(C)c3cc12 | inconclusive: 12.6 µM [inhibitor, partial curve, poor fit]
17 | CCCCOC(=O)N1CCC(N2CCCC(C(=O)N3CCOCC3)C2)CC1 (stereo not drawn) | inconclusive: 14.1 µM [inhibitor, partial curve, poor fit]
18 | O=C(Cn1ccc2cc(S(=O)(=O)N3CCCCCC3)ccc21)NCc1cccc(Cl)c1 | inconclusive: 25.1 µM [inhibitor, partial curve, poor fit]
19 | CN(C)c1ccc(CNC(=O)CCCN2C(=O)CCn3nc(-c4cn(C)c5ccccc45)cc32)cc1 | inconclusive: 2.51 µM [inhibitor, full curve, poor fit]
20 | CCCN1CCN(CCCNC(=O)c2cc3c(s2)-c2ccccc2OC3)CC1 | inconclusive: 6.31 µM [inhibitor, partial curve, poor fit]
21 | COc1cccc(CN2CCC3(CC2)CC(O)CCO3)c1 (stereo not drawn) | inconclusive: 39.8 µM [inhibitor, single point]

Row | Structure (SMILES) | Potency
22 | CCCNc1ncnc2c1c(-c1ccccc1)cn2-c1ccccc1 | inconclusive: 25.1 µM [inhibitor, partial curve, poor fit]
23 | O=c1c2c3c(nn2ccn1Cc1cc(=O)n2ccccc2n1)CCCC3 | inconclusive: 22.4 µM [inhibitor, partial curve]
24 | COc1ccc(-c2nsc(NC(=O)c3oc4ccccc4c3C)n2)cc1 | inconclusive: 1.41 µM [inhibitor, full curve, poor fit]
25 | Cn1cc(-c2cnc(Nc3cnccn3)c3c2CCO3)cn1 | inconclusive: 28.2 µM [inhibitor, single point]
26 | Cc1cc(=O)[nH]c(CCNc2nc(-c3ccncc3)nc3c2c(C)nn3C)n1 | active: 20 µM
27 | Cc1ccc(/C=C2\CCc3ccccc3C2=O)o1 | inconclusive: 20 µM [inhibitor, partial curve, poor fit]
28 | Cc1cc(NC(=O)CSc2nnc(-c3cccnc3)n2C2CC2)no1 | inactive
29 | O=C(c1ccc(OCc2cscn2)cc1)N1CCN(C2CCS(=O)(=O)C2)CC1 (stereo not drawn) | inactive
30 | O=C(CCNc1c(-c2ccc(F)cc2)nc2cnccn12)NC1CCCC1 | active: 28.2 µM
31 | CCc1ccc(NC(=O)Cn2c(=O)nc(-c3ccccc3F)c3cc(Cl)ccc32)cc1 | inactive
32 | O=C(Nc1ccc(Oc2ccccc2)cc1)c1ccc(F)c(S(=O)(=O)N2CCN(c3ccccc3F)CC2)c1 | inconclusive: 17.8 µM [inhibitor, partial curve, poor fit]
33 | Cc1cccc(OCC(=O)Nc2ccc(-c3nc4ccc(C)cc4o3)cc2)c1 | inconclusive: 10 µM [inhibitor, partial curve, poor fit]
34 | Fc1ccc(CNC2=NCCNC23CCCCCC3)cc1 | inactive
35 | COc1cc(/C=C2/C(=O)N(c3cccc(Br)c3)N=C2C)cc(OC)c1O | inconclusive: 20 µM [inhibitor, partial curve, poor fit]
36 | CCCC(NC(=O)COc1cc2c(c3oc(=O)c(C)c(C)c13)CCC(C)(C)O2)C(=O)O (stereo not drawn) | inconclusive: 28.2 µM [inhibitor, partial curve, poor fit]
37 | CCn1cc(CN2CCCC23CCN(c2ccc(C(F)(F)F)cn2)CC3)cc1C#N | inconclusive: 28.2 µM [inhibitor, partial curve, poor fit]
38 | COc1ccc(C(=O)COC(=O)Cc2coc3cc4c(cc23)CCC4)cc1OC | inconclusive: 28.2 µM [inhibitor, single point]
39 | COCCNC(=O)C1(C)CCc2cnc(Nc3cccc(OC)c3)nc21 (stereo not drawn) | inactive
40 | Cc1ccc(C)c(CN2C(=O)c3ccccc3S(=O)(=O)c3ccc(C(=O)NCCc4ccc(Cl)cc4)cc32)c1 | inconclusive: 1.78 µM [inhibitor, full curve, poor fit]
41 | CCCCOc1ccc(/C=C(/C#N)c2nc3ccccc3[nH]2)cc1OC | inconclusive: 10 µM [inhibitor, partial curve, poor fit]
42 | CN1CCN(Cc2ccc(Nc3ncc(-c4cncnc4)c4c3OCC4)cc2)CC1 | inactive

Row | Structure (SMILES) | Potency
43 | COc1cc(NC(=O)Nc2ccc(Cl)c(Cl)c2)c(C(=O)O)cc1OC | inconclusive: 22.4 µM [inhibitor, partial curve, poor fit]
44 | O=C(CCNc1c(-c2ccccc2)nc2cnccn12)N1CCC(N2CCCCC2)CC1 | active: 28.2 µM
45 | CN(C)CCn1cc(C(=O)c2ccccc2O)cc1-c1nc2ccccc2c(=O)[nH]1 | inactive
46 | CC1(c2ccccc2)N(Cc2ccccc2F)C(=O)OC12CCN(Cc1c[nH]c3ccccc13)CC2 (stereo not drawn) | inconclusive: 28.2 µM [inhibitor, partial curve, poor fit]
47 | COc1cccc(CNC(=O)CCc2c(C)nc3c4c(C)cc(C)nc4nn3c2C)c1 | inconclusive: 2.24 µM [inhibitor, full curve, poor fit]
48 | CC(C)(CNC(=O)c1cccc2ccccc12)CNC(=O)c1cccc2ccccc12 | inactive
49 | COc1ccc(C(=O)Nc2ccnn2C2CCN(c3nccc(N)n3)CC2)cc1 | inconclusive: 17.8 µM [inhibitor, single point]
50 | CCOc1ccc(OCc2ccc(C(=O)NN)o2)cc1 | inconclusive: 39.8 µM [inhibitor, single point]
51 | COc1cccc(C(=O)COC(=O)c2cc(-c3cccs3)nc3ccccc23)c1 | inconclusive: 28.2 µM [inhibitor, partial curve, poor fit]
52 | COc1ccc(CCc2nc3nccc(-c4cc(OC)c(OC)c(OC)c4)n3n2)cc1 | inconclusive: 25.1 µM [inhibitor, partial curve, poor fit]
53 | CN1CC(=O)N(c2ccccc2F)Cc2c(NCCCO)ncnc21 | inconclusive: 39.8 µM [inhibitor, partial curve, poor fit]
54 | CN(CCc1ccccn1)[C@H]1[C@@H]2OC[C@@H](O2)[C@@H](NC(=O)Nc2cccc(C#N)c2)[C@@H]1O | inconclusive: 39.8 µM [inhibitor, partial curve, poor fit]
55 | CCc1noc(-c2cccn3c(CNC(=O)c4ccc(C)c(F)c4)nnc23)n1 | inconclusive: 31.6 µM [inhibitor, partial curve, poor fit]
56 | O=C(c1ccccc1)N(Cc1ccco1)c1ccccn1 | inactive
57 | COc1cc(Cl)c(C)cc1NC(=O)CN1C(=O)NC(c2ccc(Cl)cc2)C2=C1COC2=O (stereo not drawn) | inactive
58 | O=C(O)COc1ccc(/C=C/c2nc3ccccc3c(=O)n2-c2ccc(C(=O)O)cc2)cc1 | inconclusive: 39.8 µM [inhibitor, single point]
59 | COc1ccc2ccc(OC(=O)c3ccc(CNC(C)=O)cc3)cc2c1 | inactive
60 | CC(C)Cc1noc(-c2ccc(N3CCC(O)CC3)nc2)n1 | inconclusive: 25.1 µM [inhibitor, partial curve]
61 | COc1cccc(-c2nc3cnccn3c2NCCC(=O)N2CCN(C)CC2)c1 | active: 28.2 µM
62 | COc1ccc(-c2noc(-c3ccc(N4C[C@H]5CC[C@H]4C5)nc3)n2)cc1 | active: 31.6 µM
63 | CCNC(=O)c1cc(-c2ccc(C)s2)nc2ccccc12 | inconclusive: 20 µM [inhibitor, partial curve, poor fit]
